The record followed here is ChEMBL document CHEMBL4888484, “Replenishing the malaria drug discovery pipeline: Screening and hit evaluation of the MMV Hit Generation Library 1 (HGL1) against asexual blood stage Plasmodium falciparum ,using a nano luciferase reporter read-out” (2022).

Among all 150,000 compounds or so, about 540 (0.36%) showed an effect of 50% or more. The list shows a part of the results.

In the assay the test system is Plasmodium falciparum. Description: Primary screen in NF54 nanoGlo assay, in single point, at 2uM, 72h; a lower Z score goes with more inhibition. Format: functional, Erythrocyte. Conditions: timepoint 72 hour.
What is called % Inhibition is the relative decrease from the control value, in per cent. On to `Cc1[nH]cnc1CN1CCN(C)[C@H](c2ccccc2)C1`, for which the “% Inhibition” value was -2% and the Z score worked out at 0.43.

Take `COc1ccc(-c2noc(-c3nn(-c4ccc(C)c(C)c4)ccc3=O)n2)cc1OC`: the “% Inhibition” value is recorded as 1% and the Z score is given as -0.19.

Take `CN(C)C(=O)C[C@H]1CN(Cc2cnn(C)n2)c2ccc(Cl)cc21`: the “% Inhibition” value was -3% and the Z score came out at 0.41.

Turning to `CN1CCCN(C(=O)[C@@H]2CCCCC(=O)N2Cc2ccccc2)CC1`, the “% Inhibition” value was 0% and the Z score came out at 0.07.

`CC1CCCN(S(=O)(=O)NC(C)C(=O)Nc2ccccc2)C1` (configuration not stated): the “% Inhibition” value was -5% and the Z score is on record as 0.59.

Take `CC1CN(C2CC2)CC1NS(=O)(=O)CC1CCOCC1` (configuration not stated): the “% Inhibition” value is given as -5% and the Z score is recorded as 0.7.

For the molecule `Cn1c(C(=O)NCc2cccc(F)c2)c(N2CCCC2=O)c2cc(F)ccc21`, the “% Inhibition” value came out at 4% and the Z score is recorded as -0.66.

Turning to `O=C1NCC2(CN(C(=O)c3cc(-c4ccc(F)cc4)n[nH]3)C2)N1`, the “% Inhibition” value was 1% and the Z score was -0.16.

As to `CCC[C@H]1CN(CC(N)=O)C[C@@H]1NC(=O)c1nn(C)c(C)c1Cl`, the “% Inhibition” value was -3% and the Z score is reported as 0.41.

Regarding `Cc1nn(-c2ccccc2)c2nc(C3CC3)nc(N3CCN(C(=O)c4cccc(F)c4)CC3)c12`, the “% Inhibition” value is -13% and the Z score was 1.38.

`CCC(CC)n1nc(C)cc1C(=O)N1C[C@@H]2CS(=O)(=O)C[C@@H]2C1`: the “% Inhibition” value is on record as -6% and the Z score was found to be 1.

On to `Cc1nn(C)cc1C(=O)N1CCCC[C@@H]1CCc1ccccc1`, for which the “% Inhibition” value is on record as -1% and the Z score is listed as 0.17.

For `Cc1nc(N2CCCCCCC2)ncc1[C@H](C)NCc1cnc(C)n1C`, the “% Inhibition” value is reported as -7% and the Z score is listed as 1.23.

For the molecule `COc1cccc(C(=O)Nc2ccc(OCc3nnc(-c4ccc(F)cc4)o3)cc2)c1OC`, the “% Inhibition” value is recorded as -11% and the Z score is recorded as 1.31.

As for `O=C(NCCNC(=O)C(F)(F)F)[C@H]1C[C@H]2C=C[C@@H]1C2`, the “% Inhibition” value was -10% and the Z score turned out to be 1.96.

As for `COc1cccc(COCc2ncc[nH]2)c1Cl`, the “% Inhibition” value was found to be 0% and the Z score was -0.02.

As for `CCCN1C[C@@H]2CC[C@H]1CN(C(=O)c1cnc(N3CCCCC3)nc1C)C2`, the “% Inhibition” value is reported as -2% and the Z score is 0.23.

For the molecule `CCOc1ccc(C(=O)N(CCN(C)C)CC(=O)OC(C)(C)C)cc1`, the “% Inhibition” value is recorded as -2% and the Z score is recorded as 0.3.

For `Cc1ccc(N(C)S(=O)(=O)N2CCCC2)cc1Cl`, the “% Inhibition” value was -10% and the Z score came to 1.33.

On to `Cc1ccc([C@H](C)NC(=O)CCc2ccc3[nH]cnc3c2)cc1`, for which the “% Inhibition” value was -2% and the Z score was determined as 0.33.

On to `Cc1cc(F)ccc1N1CCC[C@H](N2CCCN(C(C)C)CC2)C1=O`, for which the “% Inhibition” value is reported as -10% and the Z score is listed as 1.28.

With `CO[C@H]1CCCOC12CCN(C(=O)Cn1[nH]c3ccccc3c1=O)CC2`, the “% Inhibition” value is listed as -7% and the Z score amounted to 1.28.

In the case of `CCOc1ccccc1NC(=O)Cn1ccn2nc3c(c2c1=O)CCCC3`, the “% Inhibition” value was -18% and the Z score was 1.69.

With `CC1CN(C(=O)C2CC(C)(C)C2)CC(c2ccc(F)cc2)O1` (configuration not stated), the “% Inhibition” value came to 0% and the Z score stood at 0.03.

On to `COc1ccc(CN(CC(=O)N2CCCc3ccccc32)[C@H]2CCS(=O)(=O)C2)cc1`, for which the “% Inhibition” value turned out to be 9% and the Z score is recorded as -1.23.

As for `COc1cccc(CO[C@H]2CCCN(C(=O)c3cccc(Br)c3)C2)c1`, the “% Inhibition” value was found to be 15% and the Z score is -2.03.

Regarding `CN(C)C(=O)CCc1ncnn1C1CCCCC1`, the “% Inhibition” value is -2% and the Z score came to 0.38.

Consider `Cc1nc([C@@]2(CC3CC3)CCCN(S(=O)(=O)c3cc(F)cc(F)c3)C2)no1`, for which the “% Inhibition” value is on record as 0% and the Z score worked out at 0.02.

`O=C(c1cc2ccccc2[nH]1)N1CCN2CCS(=O)(=O)N(C3CC3)C(=O)[C@@H]2C1`: the “% Inhibition” value is -6% and the Z score is given as 0.84.

As for `CC[C@@H](CC#N)NC(=O)C1(C)CN(C(=O)OC(C)(C)C)C1`, the “% Inhibition” value is given as -2% and the Z score was found to be 0.3.

Take `Cn1ncc(CNC(=O)c2cnc3c(c2)c(C(F)(F)F)nn3C)n1`: the “% Inhibition” value is reported as -12% and the Z score was 2.26.

Turning to `O=C1CC[C@@]2(CCCN(C(=O)c3ccccc3O)C2)CN1CCc1c[nH]cn1`, the “% Inhibition” value is given as -7% and the Z score was found to be 1.06.

For `CS(=O)(=O)N[C@H]1C[C@@H]2C[C@H]1N(C(=O)NCc1cccc(F)c1)C2`, the “% Inhibition” value came out at 39% and the Z score is -4.38.

Consider `Cc1[nH]ccc1C(=O)N1C[C@@H](CN2CCOCC2)C[C@H](CO)C1`, for which the “% Inhibition” value was -1% and the Z score is given as 0.22.

In the case of `CC(NC1CCc2[nH]ncc2C1)c1ccc(S(C)(=O)=O)c(F)c1` (configuration not stated), the “% Inhibition” value is -10% and the Z score came to 1.32.

Turning to `COc1ccc(C(NC(=O)C(=O)c2cccnc2)[C@H]2C[C@@H](O)C2)cc1F` (some centres not stated), the “% Inhibition” value is reported as -16% and the Z score came to 2.69.

As to `Fc1ccc(CN2CCC[C@](CC3CC3)(c3noc(C4CCOCC4)n3)C2)cc1F`, the “% Inhibition” value was -2% and the Z score was 0.27.

Take `C=CCNC(=O)[C@H](C)N(C)Cc1ccc(OC)cc1OC`: the “% Inhibition” value is listed as -16% and the Z score was 1.35.

As to `CC1CCN(C(=O)CC[C@]2(Cc3ccc4ccccc4c3)CCC(=O)N2)CC1`, the “% Inhibition” value was found to be 4% and the Z score is listed as -0.52.

As to `O=C(c1nc2ccccc2[nH]1)N1CCC(Oc2ccc(CN3CCN(c4cccc(Cl)c4)CC3)cc2)CC1`, the “% Inhibition” value is listed as -15% and the Z score is given as 2.1.

For `Cc1ccc(Nc2nc(C)c(NC(=O)c3ccccc3C)c(Nc3ccc(C)cc3)n2)cc1`, the “% Inhibition” value is given as -11% and the Z score turned out to be 2.12.
